Assay results as given in the supplement of paper PMC10126150.
Values marked as one replicate rest on one cluster of the flow cell; about a third of the high ones do not repeat.

Test system: ATP
Test: switch fluorescence ratio, 500 uM ATP over buffer (Cy3 cluster intensity, sum of 5 cycles each) (fold (ratio)); higher = stronger signal-on switching upon ATP binding; sequences stand for … in TCGTCGGCAGCGTCAGATGTGTATAAGAGACAGTTTTTTTTTTTTTTTTTTTTTTTTT…TC
Settings: aptamer strand: ATP DNA aptamer (quencher-CACCTGGGGGAGTATTGCGGAGGAAGG + anchor), 100 nM annealed; ATP concentration: 500 uM; one replicate
Outline: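 After annealing to 100 nM quencher-labelled ATP aptamer, Cy3-labelled switching-strand clusters on a modified Illumina MiSeq flow-cell were imaged in selection buffer. A second image followed after 15 min with 500 uM ATP at 22 °C, and five such buffer/ATP cycles were done, each separated by NaOH stripping and re-annealing. The fluorescence ratio, averaged per switch-domain sequence, is summed target-cycle over summed buffer-cycle Cy3 intensity per cluster, with clusters outside 100-1000 RFU excluded.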
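Also: ATP exposure 15 min at 22 °C before imaging.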

| Sequence | switch fluorescence ratio |
| --- | --- |
| GGTCTATTAG | 0.981 |
| GGTCTCAGGA | 0.974 |
| GGTCTCAGTC | 1.02 |
| GGTCTCGAGC | 1 |
| GGTCTCTTGG | 0.991 |
| GGTCTGAAAT | 1 |
| GGTCTGGTTC | 1.04 |
| GGTCTTATTG | 1.05 |
| GGTCTTCGGA | 1.12 |
| GGTCTTTGTC | 1.04 |
| GGTGAAAGA | 1 |
| GGTGAAGGCC | 1.03 |
| GGTGAAGTG | 0.981 |
| GGTGAATAAG | 1.05 |
| GGTGAATCGG | 0.963 |
| GGTGACAGAG | 0.954 |
| GGTGACGACT | 1.09 |
| GGTGACGGGG | 1.01 |
| GGTGACTAAG | 0.996 |
| GGTGAGACGT | 1.09 |
| GGTGAGACTA | 1.01 |
| GGTGAGCCTC | 0.989 |
| GGTGATTAGC | 0.981 |
| GGTGCAGCC | 0.991 |
| GGTGCAGTTG | 0.964 |
| GGTGCATCTA | 0.976 |

| Sequence | switch fluorescence ratio |
| --- | --- |
| GGTGCCCGCC | 1.04 |
| GGTGCCGCCA | 1.02 |
| GGTGCGGGG | 0.984 |
| GGTGCGTCCA | 0.957 |
| GGTGCTAAAC | 1.01 |
| GGTGCTTTA | 1.01 |
| GGTGGAAGAC | 0.989 |
| GGTGGATAGA | 1.03 |
| GGTGGCAATT | 1.09 |
| GGTGGCAGTG | 1.18 |
| GGTGGCCACG | 0.964 |
| GGTGGCGTAA | 0.997 |
| GGTGGCGTCA | 0.937 |
| GGTGGCTGGC | 0.916 |
| GGTGGCTGTG | 0.983 |
| GGTGGGACTG | 1.01 |
| GGTGGGGCAA | 1.06 |
| GGTGGTATTG | 0.991 |
| GGTGGTCAAG | 0.999 |
| GGTGGTGATC | 0.995 |
| GGTGTACCCC | 1.03 |
| GGTGTAGGCC | 1.03 |
| GGTGTATAG | 1.05 |
| GGTGTCAGCC | 0.954 |
| GGTGTGCGGT | 0.954 |
| GGTGTGTCTT | 0.983 |

| Sequence | switch fluorescence ratio |
| --- | --- |
| GGTGTGTGAA | 1.03 |
| GGTGTGTTAC | 0.96 |
| GGTGTTCAAC | 0.975 |
| GGTGTTGGCC | 1.01 |
| GGTGTTT | 1.06 |
| GGTTAAAAGA | 1.03 |
| GGTTAACGTG | 1.01 |
| GGTTAAGGAA | 0.972 |
| GGTTACACGG | 0.976 |
| GGTTACAGGA | 0.936 |
| GGTTACGGAG | 0.996 |
| GGTTACGGAT | 0.965 |
| GGTTAGCTCG | 0.983 |
| GGTTATATAC | 1.12 |
| GGTTATATCT | 1 |
| GGTTATCGTT | 0.998 |
| GGTTATGCGA | 1.02 |
| GGTTATGGTC | 0.957 |
| GGTTATGTTA | 0.99 |
| GGTTATTCAC | 1.07 |
| GGTTATTCGT | 0.991 |
| GGTTCAAGTC | 1.04 |
| GGTTCATCGT | 1.02 |
| GGTTCCTCGA | 0.983 |
| GGTTCGGCCC | 1.01 |
| GGTTCTAAAA | 0.959 |

| Sequence | switch fluorescence ratio |
| --- | --- |
| GGTTGACACA | 1.02 |
| GGTTGCACCA | 1.03 |
| GGTTGCGGAA | 1.03 |
| GGTTGCGTAT | 1.01 |
| GGTTGGAAAC | 0.982 |
| GGTTGGACGG | 0.951 |
| GGTTGGCTTC | 1.01 |
| GGTTGGTCGG | 1 |
| GGTTGTGTCT | 1 |
| GGTTGTTGGT | 0.97 |
| GGTTTACTCT | 0.978 |
| GGTTTAGAGT | 1.01 |
| GGTTTAGTAG | 0.962 |
| GGTTTCCTG | 0.968 |
| GGTTTCGAGT | 1.01 |
| GGTTTCTACG | 1.03 |
| GGTTTGCTAA | 0.982 |
| GGTTTGGAGT | 0.911 |
| GGTTTGTAAA | 1.01 |
| GGTTTTGCCG | 1.01 |
| GGTTTTGCT | 0.975 |
| GTAAAAACGT | 1.03 |
| GTAAAACGGG | 1.03 |
| GTAAAATTCG | 0.976 |
| GTAAACTTTA | 1 |
| GTAAAGCTCC | 1.23 |

| Sequence | switch fluorescence ratio |
| --- | --- |
| GTAAAGGACA | 1.27 |
| GTAAATAAGT | 0.974 |
| GTAAATTAGC | 0.986 |
| GTAAATTCTA | 1 |
| GTAACCCAG | 1.07 |
| GTAACCTGAG | 1.91 |
| GTAACGCGCT | 1 |
| GTAACTAAAT | 1 |
| GTAACTGAGT | 0.983 |
| GTAACTGTGT | 1.02 |
| GTAAGAAGT | 0.959 |
| GTAAGACTGT | 1 |
| GTAAGCAGGT | 0.953 |
| GTAAGCTTCT | 1.06 |
| GTAAGGGAGC | 0.966 |
| GTAAGTAACC | 1.07 |
| GTAAGTGAGG | 1.01 |
| GTAAGTGTCT | 0.99 |
| GTAATAGCCA | 0.968 |
| GTAATCCCAC | 1.05 |
| GTAATGGAGA | 1.01 |
| GTAATTAACT | 0.958 |
| GTAATTACAT | 1.01 |
| GTAATTAGTG | 1.01 |
| GTAATTATTG | 0.991 |
| GTAATTTTGT | 1.02 |

| Sequence | switch fluorescence ratio |
| --- | --- |
| GTACAAGAG | 1.06 |
| GTACCATCTA | 1.01 |
| GTACCGCTCG | 0.987 |
| GTACCTGACG | 1.11 |
| GTACCTGGGT | 1.02 |
| GTACGAGAAT | 1.01 |
| GTACGCGACG | 1.14 |
| GTACGCTGTA | 1.01 |
| GTACGTCTCG | 0.999 |
| GTACGTTCTA | 1.03 |
| GTACTACCAA | 1.11 |
| GTACTCAGGT | 1.03 |
| GTACTGGC | 1.04 |
| GTACTTCGC | 1.14 |
| GTACTTTAGC | 1.01 |
| GTAGAACCCC | 1.07 |
| GTAGACGGAC | 1.17 |
| GTAGATATAA | 0.968 |
| GTAGATTTTT | 1.02 |
| GTAGCAGAGC | 1.05 |
| GTAGCCAACG | 1.02 |
| GTAGCCCCTC | 1.07 |
| GTAGCCGTTT | 1.2 |
| GTAGCGAGTC | 1.23 |
| GTAGCGCCAG | 0.998 |
| GTAGCTGGCG | 1.06 |

| Sequence | switch fluorescence ratio |
| --- | --- |
| GTAGGACGCT | 1.02 |
| GTAGGAGTTA | 1.28 |
| GTAGGATGGC | 0.964 |
| GTAGGCGGAC | 0.999 |
| GTAGGGATA | 0.962 |
| GTAGGGCTTG | 0.991 |
| GTAGGGCTTT | 0.981 |
| GTAGGGGGC | 1.01 |
| GTAGGGTTAG | 0.956 |
| GTAGTAAAAA | 1.04 |
| GTAGTAATGA | 1.23 |
| GTAGTACTG | 1.04 |
| GTAGTACTTG | 1.04 |
| GTAGTCAATC | 2.96 |
| GTAGTCGGCA | 1.02 |
| GTAGTCGTGG | 1 |
| GTAGTGGCTC | 1.41 |
| GTAGTGGGAA | 0.973 |
| GTAGTGTAAG | 0.997 |
| GTAGTTACAT | 0.99 |
| GTAGTTAGAT | 0.991 |
| GTAGTTGCTG | 1.03 |
| GTATAAACGC | 1.01 |
| GTATACATAT | 1.03 |
| GTATACCGTG | 0.966 |
| GTATAGCCCC | 0.994 |

| Sequence | switch fluorescence ratio |
| --- | --- |
| GTATAGGTAT | 1.01 |
| GTATAGTGCT | 0.958 |
| GTATAGTTAC | 1.06 |
| GTATCAGTTG | 0.991 |
| GTATCCTAGT | 0.976 |
| GTATCGGAGG | 1.02 |
| GTATCGGGTT | 0.947 |
| GTATCGTTTT | 1.03 |
| GTATCTATTT | 1.02 |
| GTATCTCCGT | 1.02 |
| GTATGAACGA | 0.992 |
| GTATGGCTTT | 1.02 |
| GTATGGTTCT | 0.935 |
| GTATTAAGA | 1.01 |
| GTATTAATAG | 0.975 |
| GTATTATCCC | 0.997 |
| GTATTATGGA | 0.974 |
| GTATTCACT | 1.06 |
| GTATTGCACC | 0.998 |
